# In the RNAGym collection of RNA variant scans (doi:10.1093/nar/gkz1192):
# The source gives no read counts; variants with many changes may rest on few reads.
# B1: CPEB3 Ribozyme (parent)
# chain: UAACAGGGGGCCACAGCAGAAGCGUUCACGUCGCAGCCCCUGUCAGAUUCUGGUGAAUCUGCGAAUUCUGCUGUAUAUCUC
# Variants of: B1
# Assay: self-cleavage, relative activity (ratio to wild type); higher = more cleavage; in vitro, sequencing
# Procedure, shortened: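 For each CPEB3 ribozyme variant, relative activity is its cleaved/total read fraction divided by the unmutated ribozyme's. Barcoded error-prone PCR libraries were transcribed by T7 RNA polymerase (5 hours, 37°C) and held in DNase I for 15 min before an EDTA stop, with cleavage occurring throughout. Template-switching reverse transcription and Illumina sequencing were used to read the RNAs. A 5-read minimum applied, and results are the mean of three batches.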
row,Variant,self-cleavage
1,A3U A13U A35U U76C,0.85
2,A3U A13U A57G U76C U80A,1.27
3,A3U A13U C29U,0.85
4,A3U A13U G30A C50A C62G A65G,0.23
5,A3U A13U U26C U49C A64G C79A,0.32
6,A3U A13U U31C A35G C62U,0.32
7,A3U A13U U41A U60C,0.08
8,A3U A13U U48C,1.04
9,A3U A13U U48C A64U U72C U78C U80C,0.23
10,A3U A15C A21G A28C U72C U80C,0.18
11,A3U A15C A28C C37U,0.13
12,A3U A15G A28C U58C U60C U74C,0.1
13,A3U A15G A45G,0.75
14,A3U A15G A47U,0.33
15,A3U A15G C34G U41C A64G C81A,0.12
16,A3U A15G G19U C23A U26C A35G,0.07
17,A3U A15G G33A A35U U78C,0.16
18,A3U A15G U48C,0.53
19,A3U A15G U49C,0.63
20,A3U A15G U49C U60C A64G,0.19
21,A3U A15G U51C,0.7
22,A3U A15U A21U A28G A47U U74A,0.1
23,A3U A15U A35G A45G U51G U69A U78C,1.01
24,A3U A15U C39U,0.69

row,Variant,self-cleavage
1,A3U A15U G30A U51A G63U A64G U80C,0.09
2,A3U A15U G42A U48C C79U,0.09
3,A3U A18C U58G A64G G70A,0.09
4,A3U A18G A20U U51C U67C U69C U80C,0.15
5,A3U A18G A35G C40A,0.44
6,A3U A18G A35G U80A,0.61
7,A3U A18G A47U,0.42
8,A3U A18G A47U U67C,0.17
9,A3U A18G C37U A64U U67A U78C,0.05
10,A3U A18G G24A U54C A56G,0.2
11,A3U A18G G24U U25C U49C U80C,0.09
12,A3U A18G U25A C27A A28G G36A,0.07
13,A3U A18G U25C U51A A64U U66A,0.26
14,A3U A18G U26A A57G,0.46
15,A3U A18G U31C,0.49
16,A3U A18G U41A,0.51
17,A3U A18G U41A A45C U48A U78C,0.25
18,A3U A18G U41G,0.46
19,A3U A18U A20G C39U U49C U58C,0.08
20,A3U A18U A28C,0.18
21,A3U A18U A45G,0.63
22,A3U A18U A45G A56G,0.31
23,A3U A18U C29U A75G,0.14
24,A3U A18U U31C C38U U67G,0.12

row,Variant,self-cleavage
1,A3U A18U U41C G61A U69G C79U,0.44
2,A3U A18U U67C,0.53
3,A3U A20C U48C,0.52
4,A3U A20G A21U C29A,0.44
5,A3U A20G A28G A64U,0.1
6,A3U A20G A35G U41A,0.41
7,A3U A20G A35U C39U U72A U80C,0.13
8,A3U A20G A45C U67A,0.11
9,A3U A20G C27A U60C U69A,0.11
10,A3U A20G U26C U31A U67A,0.4
11,A3U A20G U41C U69A U78C,0.51
12,A3U A20G U78C U80C,0.62
13,A3U A20U A21G U31C A45G U49C,0.05
14,A3U A20U A35G U58A A75G,0.34
15,A3U A20U C23G U25C A45G A57G U80C,0.11
16,A3U A20U C38U U48C U69C A75G,0.11
17,A3U A20U U41C U49A A57G,0.31
18,A3U A21G A47U U48A G73A,0.21
19,A3U A21G G61C U67C U69A,0.08
20,A3U A21G U26A C37G U60C,0.23
21,A3U A21G U26C A28G,0.12
22,A3U A21G U43A,0.56
23,A3U A21G U49C U72C,0.1
24,A3U A21G U51C,0.74

row,Variant,self-cleavage
1,A3U A21U A28G U43A,0.12
2,A3U A21U A77G,0.36
3,A3U A21U G30A U31C U54A,0.12
4,A3U A21U G42A U69C G73A U80A,0.24
5,A3U A21U U49C A57G,0.1
6,A3U A28C U41A A47G U48C,0.48
7,A3U A28C U49C,0.45
8,A3U A28G A35G,1.13
9,A3U A28G A35U,0.41
10,A3U A28G A47U A64G,0.28
11,A3U A28G A64G,0.5
12,A3U A28G A64U U72A U78A,0.16
13,A3U A28G A64U U72C G73A U74C,0.18
14,A3U A28G C40A U41C A64U U78C,0.11
15,A3U A28G C40A U48C U66C,0.2
16,A3U A28G G30U A35U,0.16
17,A3U A28G U60A G63A U76C,0.24
18,A3U A28G U66C,0.09
19,A3U A28U A65G A75U,0.77
20,A3U A28U C71U,0.38
21,A3U A28U G36A U41A U69C U72C,0.14
22,A3U A28U G42A U49C,0.24
23,A3U A28U U48C,0.54
24,A3U A28U U48C U58A C71U,0.14

row,Variant,self-cleavage
1,A3U A35C G52A G53A U66C U67C U80G,0.15
2,A3U A35G A56G A57G A64G,1.1
3,A3U A35G A57G,1.35
4,A3U A35G C37G A57U G61U U67G A77G,0.1
5,A3U A35G C37U U48C A56U U69A U80C,0.32
6,A3U A35G C38U,1.23
7,A3U A35G C39U U54A A65G,0.86
8,A3U A35G U67C,0.66
9,A3U A35U G46U,0.25
10,A3U A35U U43C U49C A57G A77G U78C,0.1
11,A3U A35U U48C U69C U72C,0.2
12,A3U A45G G52A U60C A75G,1.14
13,A3U A45G U60C,1
14,A3U A45G U78C,0.93
15,A3U A45U A65U A75G C81U,0.06
16,A3U A45U C68A,0.02
17,A3U A47G A64G,0.47
18,A3U A47G U48A,0.5
19,A3U A47G U48A U49A,0.35
20,A3U A47G U48C U69C,0.2
21,A3U A56G U69G,0.6
22,A3U A56U C59G A64U,0.2
23,A3U A57G A64U C68A U69A,0.28
24,A3U A57U U74A,1.17

row,Variant,self-cleavage
1,A3U A57U U74C,0.99
2,A3U A64G U69C U72A A75G,0.18
3,A3U A64U U80C,0.58
4,A3U C4A G63A U67A,0.55
5,A3U C4U A47U U51C U69C,0.41
6,A3U C4U G8A A18U G33A U49C,0.27
7,A3U C4U U60C,0.66
8,A3U C11G A15U U25A,0.07
9,A3U C11G C27U A57G U67A U72C U80A,0.06
10,A3U C11G U51A U60C,0.11
11,A3U C12G A13G U49C U66C U80A,0.24
12,A3U C12G A18G A65G U69A,0.12
13,A3U C12G G30A A35U U41C U69A U80A,0.06
14,A3U C12G U67G,0.19
15,A3U C12U A21G U60C U69C,0.32
16,A3U C12U C14U,1.21
17,A3U C12U G30C U41C A75U,0.09
18,A3U C14A A20G U80C,1.04
19,A3U C14A C23A C27G U31C A45G U78C,0.11
20,A3U C14G U31A U60C A65G,0.12
21,A3U C14U A18G A21G G30A,0.06
22,A3U C17A U60G C62U A64G,0.17
23,A3U C17G A18C C34U U72C,0.36
24,A3U C17G C40A A57G A77U,0.05

row,Variant,self-cleavage
1,A3U C23U A57G A75G,0.09
2,A3U C27A C38A G42A U66C,0.12
3,A3U C27U A35G,0.48
4,A3U C29U U43A A64G G70A U72A,0.08
5,A3U C32U A45G,0.36
6,A3U C37U U51A U72G,0.59
7,A3U C38A U66C,0.11
8,A3U C38U A45G,0.36
9,A3U C38U U49A,0.44
10,A3U C39G U67C,0.18
11,A3U C39U A57G A64G,0.4
12,A3U C71G U78C,0.5
13,A3U G6A A13U U41G U69C U72C,0.09
14,A3U G6A A45G U49C U72C U80C,0.06
15,A3U G6A C37U A56G A57G U72C,0.08
16,A3U G6A U41A A64G U72C U76A,0.08
17,A3U G6C A15G A56G,0.62
18,A3U G7U G10A G24A U41A,0.05
19,A3U G7U U60C,0.17
20,A3U G8A U25C U54A U69C U78C,0.07
21,A3U G8C C32G C37U A75G,0.05
22,A3U G8U A35U A65G,0.07
23,A3U G8U U26A C62U,0.05
